{"source": "the supplement of paper PMC8728848", "assay_in_all_cases": "glycan array binding signal (z-score within array); higher = stronger binding", "settings_in_all_cases": "glycan notation: IUPAC condensed, linker removed", "key": {"[1]": {"target": "Neu5Ac(a2-6)GlcNAc(b1-4)GlcNAc(b1-4)GlcNAc", "outline": "(§1)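 From the Consortium for Functional Glycomics database, 3228 arrays were curated, keeping only those whose protein sequence was available. Binding is given as a within-array Z-score averaged across arrays sharing a protein sequence and across linkers. Negative Z-scores can be read as non-binding.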"}, "[2]": {"target": "Neu5Ac(a2-8)Neu5Ac", "outline": "as §1"}, "[3]": {"target": "Neu5Ac(a2-8)Neu5Ac(a2-3)Gal(b1-3)GalNAc(b1-4)[Neu5Ac(a2-3)]Gal(b1-4)Glc", "outline": "as §1"}, "[4]": {"target": "Neu5Ac(a2-8)Neu5Ac(a2-3)Gal(b1-3)GalNAc(b1-4)[Neu5Ac(a2-8)Neu5Ac(a2-3)]Gal(b1-4)Glc", "outline": "as §1"}, "[5]": {"target": "Neu5Ac(a2-8)Neu5Ac(a2-3)Gal(b1-4)Glc", "outline": "as §1"}, "[6]": {"target": "Neu5Ac(a2-8)Neu5Ac(a2-3)Gal(b1-4)GlcNAc", "outline": "as §1"}, "[7]": {"target": "Neu5Ac(a2-8)Neu5Ac(a2-3)[Gal(b1-3)GalNAc(b1-4)]Gal(b1-4)Glc", "outline": "as §1"}, "[8]": {"target": "Neu5Ac(a2-8)Neu5Ac(a2-3)[GalNAc(b1-4)]Gal(b1-4)Glc", "outline": "as §1"}, "[9]": {"target": "Neu5Ac(a2-8)Neu5Ac(a2-8)Neu5Ac", "outline": "as §1"}, "[10]": {"target": "Neu5Ac(a2-8)Neu5Ac(a2-8)Neu5Ac(a2-3)Gal(b1-4)Glc", "outline": "as §1"}, "[11]": {"target": "Neu5Ac(a2-8)Neu5Ac(a2-8)Neu5Ac(a2-3)[Gal(b1-3)GalNAc(b1-4)]Gal(b1-4)Glc", "outline": "as §1"}, "[12]": {"target": "Neu5Ac(a2-8)Neu5Ac(a2-8)Neu5Ac(a2-3)[GalNAc(b1-4)]Gal(b1-4)Glc", "outline": "as §1"}, "[13]": {"target": "Neu5Ac(a2-8)Neu5Ac(a2-8)Neu5Ac(a2-8)Neu5Ac(a2-3)[GalNAc(b1-4)]Gal(b1-4)Glc", "outline": "as §1"}, "[14]": {"target": "Neu5Ac(a2-8)Neu5Gc(a2-3)Gal(b1-4)GlcNAc", "outline": "as §1"}, "[15]": {"target": "Neu5Ac(b2-6)Gal(b1-4)GlcNAc", "outline": "as §1"}, "[16]": {"target": "Neu5Ac(b2-6)GalNAc", "outline": "as §1"}, "[17]": {"target": "Neu5Ac9Ac(a2-3)Gal(b1-3)GlcNAc", "outline": "as §1"}, "[18]": {"target": "Neu5Ac9Ac(a2-3)Gal(b1-4)GlcNAc", "outline": "as §1"}, "[19]": {"target": "Neu5Ac9Ac(a2-6)Gal(b1-4)GlcNAc", "outline": "as §1"}, "[20]": {"target": "Neu5Gc(a2-3)Gal(b1-3)GlcNAc", "outline": "as §1"}, "[21]": {"target": "Neu5Gc(a2-3)Gal(b1-3)[Fuc(a1-4)]GlcNAc", "outline": "as §1"}, "[22]": {"target": "Neu5Gc(a2-3)Gal(b1-4)Glc", "outline": "as §1"}, "[23]": {"target": "Neu5Gc(a2-3)Gal(b1-4)GlcNAc", "outline": "as §1"}, "[24]": {"target": "Neu5Gc(a2-3)Gal(b1-4)GlcNAc(b1-3)Gal(b1-4)GlcNAc(b1-2)Man(a1-3)[Neu5Gc(a2-3)Gal(b1-4)GlcNAc(b1-3)Gal(b1-4)GlcNAc(b1-2)Man(a1-6)]Man(b1-4)GlcNAc(b1-4)GlcNAc", "outline": "as §1"}, "[25]": {"target": "Neu5Gc(a2-3)Gal(b1-4)[Fuc(a1-3)]GlcNAc", "outline": "as §1"}, "[26]": {"target": "Neu5Gc(a2-6)Gal(b1-4)GlcNAc", "outline": "as §1"}, "[27]": {"target": "Neu5Gc(a2-6)GalNAc", "outline": "as §1"}, "[28]": {"target": "Neu5Gc(a2-8)Neu5Ac(a2-3)Gal(b1-4)GlcNAc", "outline": "as §1"}, "[29]": {"target": "Neu5Gc(a2-8)Neu5Gc(a2-3)Gal(b1-4)GlcNAc", "outline": "as §1"}, "[30]": {"target": "Neu5Gc(a2-8)Neu5Gc(a2-3)Gal(b1-4)GlcNAc(b1-3)Gal(b1-4)GlcNAc", "outline": "as §1"}, "[31]": {"target": "Neu5Gc(a2-8)Neu5Gc(a2-6)Gal(b1-4)GlcNAc", "outline": "as §1"}, "[32]": {"target": "Neu5Gc(b2-6)Gal(b1-4)GlcNAc", "outline": "as §1"}}, "note": "Some of the results follow.", "data": [{"binder": "PX14375l-pdi-526-25-526 (Parabacteroides distasonis) (protein) DEEPKSTLTDVAYYKTQSQMESNVNYLYRTGAIGSYVDFGSAYIGPFASIQEELTGYFSNSYEGQEIVCRYTRELTRQQNTMQLASKMDKVWDDCYRGINVANGAIKHMPEVPMDQATADRLTAEAKFFRAFNYFYLVKTFGAVPFYTDPYELAENMELPRTETSTIYNQIESDLKDAMNVLPEATFAANGHRITKYVAAMTLTDVYMYQHKYAEAAETVRIVVNSNHKLTTNDDLAMNSAFNKLRSTDDLDEAIYAYEYDNQISPSNWLPTYAFDGDASSNGLFGTYAITQKVHGPNDRYLNIYESNDLRRQPNQFYHWTYTNPKTGKVWNSVGNAACCWYYYDEDALLTTGRGTKDWNVYRYAEALLDAAESIAQSTGVTAEAAGYLAQVKARANMEGKTAAEIASSLQSMGKQAFIEECWTERLRELPLEFKMWDMCVRTGMFPNISETTPGQVTYIPLVGAKNASGATIKESDLLWPLSVNEIQRNPSLTQNEGYSAK", "values": [{"measurement": "glycan array binding signal (z-score)", "setting": "[1]", "result": -0.039}, {"measurement": "glycan array binding signal (z-score)", "setting": "[2]", "result": -0.205}, {"measurement": "glycan array binding signal (z-score)", "setting": "[3]", "result": -0.12}, {"measurement": "glycan array binding signal (z-score)", "setting": "[4]", "result": 0.186}, {"measurement": "glycan array binding signal (z-score)", "setting": "[5]", "result": -0.15}, {"measurement": "glycan array binding signal (z-score)", "setting": "[6]", "result": -0.269}, {"measurement": "glycan array binding signal (z-score)", "setting": "[7]", "result": -0.225}, {"measurement": "glycan array binding signal (z-score)", "setting": "[8]", "result": 0.169}, {"measurement": "glycan array binding signal (z-score)", "setting": "[9]", "result": -0.318}, {"measurement": "glycan array binding signal (z-score)", "setting": "[10]", "result": -0.12}, {"measurement": "glycan array binding signal (z-score)", "setting": "[11]", "result": -0.27}, {"measurement": "glycan array binding signal (z-score)", "setting": "[12]", "result": -0.132}, {"measurement": "glycan array binding signal (z-score)", "setting": "[13]", "result": -0.045}, {"measurement": "glycan array binding signal (z-score)", "setting": "[14]", "result": 2.74}, {"measurement": "glycan array binding signal (z-score)", "setting": "[15]", "result": -0.205}, {"measurement": "glycan array binding signal (z-score)", "setting": "[16]", "result": -0.278}, {"measurement": "glycan array binding signal (z-score)", "setting": "[17]", "result": -0.476}, {"measurement": "glycan array binding signal (z-score)", "setting": "[18]", "result": -0.383}, {"measurement": "glycan array binding signal (z-score)", "setting": "[19]", "result": 0.41}, {"measurement": "glycan array binding signal (z-score)", "setting": "[20]", "result": -0.223}, {"measurement": "glycan array binding signal (z-score)", "setting": "[21]", "result": -0.251}, {"measurement": "glycan array binding signal (z-score)", "setting": "[22]", "result": -0.378}, {"measurement": "glycan array binding signal (z-score)", "setting": "[23]", "result": -0.059}, {"measurement": "glycan array binding signal (z-score)", "setting": "[24]", "result": -0.152}, {"measurement": "glycan array binding signal (z-score)", "setting": "[25]", "result": 0.082}, {"measurement": "glycan array binding signal (z-score)", "setting": "[26]", "result": -0.438}, {"measurement": "glycan array binding signal (z-score)", "setting": "[27]", "result": -0.302}, {"measurement": "glycan array binding signal (z-score)", "setting": "[28]", "result": -0.206}, {"measurement": "glycan array binding signal (z-score)", "setting": "[29]", "result": -0.27}, {"measurement": "glycan array binding signal (z-score)", "setting": "[30]", "result": -0.201}, {"measurement": "glycan array binding signal (z-score)", "setting": "[31]", "result": -0.034}, {"measurement": "glycan array binding signal (z-score)", "setting": "[32]", "result": 0.191}]}]}
